From the supplement of paper PMC3334620
Whole data set: some 33,000 sequences, median “E-score (-0.5 to 0.5)” near -0.017, cut for the highest 2% near 0.3. The list shows a part of the results.

Molecular target: T1, Sut1 (UniProt P53032)
T1 sequence: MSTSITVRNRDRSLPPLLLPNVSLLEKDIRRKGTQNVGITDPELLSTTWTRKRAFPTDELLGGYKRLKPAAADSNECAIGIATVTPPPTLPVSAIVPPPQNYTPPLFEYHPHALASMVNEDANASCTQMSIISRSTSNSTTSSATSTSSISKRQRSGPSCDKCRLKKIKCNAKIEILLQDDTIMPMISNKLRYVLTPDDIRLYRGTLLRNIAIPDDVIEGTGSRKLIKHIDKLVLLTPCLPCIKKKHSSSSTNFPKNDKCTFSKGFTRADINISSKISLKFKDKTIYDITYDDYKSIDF
Assay: PBM E-score (8-mer binding enrichment) (E-score (-0.5 to 0.5)); higher = stronger / more preferred TF binding; most listed sequences are background and not binding sites
Settings: protein concentration: 200 nM; construct: GST-full length
In short: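 Yeast transcription factors carrying a GST tag, as full-length proteins or DNA-binding domains, were produced by PURExpress in vitro transcription/translation. About 100-200 nM protein was applied to universal all-10-mer Agilent arrays, double-stranded by primer extension on fresh or once-stripped slides. Bound protein was detected with fluorescent anti-GST, and scans were normalised with masliner. The Universal PBM Analysis Suite gave each ungapped eight-base word, pooled with its reverse complement, an E-score, a modified Wilcoxon-Mann-Whitney statistic.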

Sequence | PBM E-score
CCGGCAGA | -0.145
CGGCGATC | -0.0258
GCGCCGGA | 0.196
ATCGAGCC | -0.218
CGGCCCCA | -0.4
GCTTAACA | 0.133
CATGCATA | 0.0165
TGAAGGCA | -0.128
CTCACATA | -0.0417
TAGTGGAA | -0.0866
TCGGTGCA | 0.0194
AGAGACAG | -0.00546
GTGCAGAA | -0.116
AGATTAGC | 0.0249
CTAGGATC | -0.16
ATTTGGAA | 0.0805
TAATTCCA | 0.129
CTTGCGAC | -0.165
AAGGTCAA | -0.0141
AACTCCAC | 0.166
GCAGAGCA | -0.116
ATAGGGTA | 0.19
GAGTCCTA | -0.0527
ACGCTTAT | -0.0903
GACCAGGC | -0.157

Sequence | PBM E-score
CAATAGTA | -0.0175
AAGTACTC | 0.0904
GTTGTCCA | 0.0464
GTTCGTAA | 0.0781
AAATCCAG | 0.081
AGAATGAT | 0.165
CTTTAGTA | -0.0309
AGCTGTGA | -0.106
TCGAGAGA | 0.0126
GCACGACA | -0.237
GATTCTAC | 0.0341
GTGATTAA | 0.158
AAAAGTCG | 0.134
ACGGAATC | 0.252
AAACCAGT | -0.0312
CGGCCGCA | -0.193
CAATCTCA | -0.0455
AAACGCGT | -0.051
GCGGTTCC | 0.16
AACTCCAT | 0.269
CCCGGTTA | -0.115
ACCCTGTG | -0.139
ATACTCCA | -0.0121
GCAGCCAC | -0.0917
CGAACTCA | -0.0187

Sequence | PBM E-score
TAGGAGCA | -0.215
AGTTTGCG | -0.0449
AATATTTC | 0.267
CGATCGTA | -0.0653
AAGAATGG | 0.174
CTGCCCTA | -0.0386
GATGTCGA | 0.175
CTAAGCCC | -0.193
AAGGTAAT | 0.22
CTACCTAG | -0.145
CGAGGGAC | -0.339
AACTGGCG | -0.128
CTACAAGC | -0.0782
ACAAAATG | 0.141
CTCGTTCC | 0.00014
GGTAGCGA | -0.00384
TCCTATCA | 0.0271
ATTCTATA | 0.16
ATACGCTG | 0.025
GGACGAGA | -0.0779
CTAAGGTC | -0.146
CATGGGCG | -0.16
AAGAACTC | 0.255
GCCTGAGA | -0.155
GCAAGCAC | -0.185

Sequence | PBM E-score
TATACACA | 0.194
ATGTCATG | -0.0163
ATCATGTA | 0.0818
GATACCGC | -0.0884
ATTCGTAA | 0.177
CGAGACCA | -0.0257
CGTCACAA | -0.132
CAGTTAGA | -0.00486
CCCCTCTC | -0.295
ATGATCGC | -0.106
AGCGGGAA | 0.0325
ATGACACA | 0.104
AATTGATA | 0.268
CTTCCTCA | 0.0517
CAGTACCA | -0.148
AGATCCTG | -0.102
CAGTGGAA | -0.111
GTTACGCA | -0.0591
CCGCATCA | 0.0522
AATTGACG | 0.0866
CGGATACA | 0.176
CCTTAACC | -0.177
CCAGAGCA | -0.0943
CATGGCCA | -0.251
ACGATTAC | -0.0111

Sequence | PBM E-score
GATTAGGC | 0.0483
GAAGCTCA | -0.033
CGCCTCCC | -0.29
AAAACGGG | 0.164
AGGCAGCC | 0.0036
AATTGGGG | -0.0626
AACCCGTT | -0.232
GCTCAGAC | -0.101
CACCCAGC | -0.249
ACTCGAGT | 0.0517
AGAATGAA | 0.052
AGACGGTA | 0.0224
TCGGCTAA | 0.00903
TAGTTGGA | 0.134
CCACCGAC | -0.199
AATCCTGC | -0.135
AAAGAGAT | -0.0263
TACAGATA | 0.232
ACACGGTA | -0.0295
ACAACGGT | -0.0817
TAGCTGCA | -0.21
ATATGGGC | -0.087
AAACGATG | 0.13
GAAAAGGC | 0.0202
ATATGCCA | -0.0276

Sequence | PBM E-score
AACCCGGT | -0.154
TACACCGA | 0.106
TCAACAAA | 0.17
GTGCCTGA | -0.163
AACACATA | 0.185
GAAGAGCA | -0.0746
ACGCGCAC | -0.121
CTTGCTTA | -0.095
CCACGCAA | -0.0607
CAAGAGCA | -0.255
ATCCACCA | -0.0174
GAACAACC | 0.167
CACGACTC | -0.0632
AATGCCGC | -0.0558
CGGCACCG | 0.201
CAAACTTG | 0.0533
ATTGTAAG | 0.0414
CAATGCTC | -0.0941
AAGTCCCC | 0.0106
CTATGAGC | -0.0667
CATAGTAG | -0.116
AAGTACGG | -0.0591
TAGCTAGA | -0.11
GAGGGTGA | -0.191
AACCCGGG | -0.0177

Sequence | PBM E-score
GACGTTGC | -0.0761
ATATCATA | 0.236
ATATGCGC | -0.169
ATGAGGCA | -0.194
CATCCAAC | 0.0969
CTTATAGC | 0.0162
AGGTACCC | -0.281
GCAGTCGC | -0.12
GGCCGTGA | -0.0209
ATAGGGGA | -0.179
AGTATGAA | 0.197
AGTTTGAG | 0.164
ACTAAGCT | 0.0925
CACCACCG | -0.128
AGACTGCC | -0.0781
AGCCAGTC | -0.039
CCGTGGGC | -0.0462
AGAAGCGG | -0.0604
ACTCGGAC | 0.411
CTACCAGC | -0.212
ATGACGAA | 0.0842
ACTACAGG | -0.0295
